± gives the standard deviation of the averaged measurements. Whole data set: some 33,000 sequences, median “E-score (dimensionless, -0.5 to 0.5)” near -0.046, cut for the highest 2% near 0.36. The list shows a part of the results.
Tested on: T1, SpTbr T-box DNA-binding domain (GST fusion)
T1 sequence: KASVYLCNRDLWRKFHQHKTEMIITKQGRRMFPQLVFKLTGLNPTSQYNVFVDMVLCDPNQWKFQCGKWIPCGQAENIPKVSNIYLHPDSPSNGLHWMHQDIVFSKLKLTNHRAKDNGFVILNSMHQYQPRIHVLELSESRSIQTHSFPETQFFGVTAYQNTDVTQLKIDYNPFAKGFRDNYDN
Assay: PBM E-score of 8-mer (E-score (dimensionless, -0.5 to 0.5)); Tbr is Tbrain of the sea star Patiria miniata (Pm) or the sea urchin Strongylocentrotus purpuratus (Sp); higher = stronger binding preference; most listed sequences are background and not binding sites
Conditions: the construct has about 5 more residues each side
Procedure, shortened: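 Each ungapped 8-mer received an enrichment E-score from the Universal PBM Analysis Suite, averaged over duplicate arrays. The proteins were Tbr T-box DNA-binding domains, covering the whole T-box plus about five flanking residues, fused to GST and expressed in BL21 E. coli at 20 °C before glutathione affinity purification. Universal Agilent oligonucleotide arrays were made double-stranded by primer extension and incubated with 200 nM protein in PBS (pH 7.5). The arrays were then scanned and quantified, and every 8-mer was scored from probe intensities.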

| Sequence | PBM E-score of 8-mer |
| --- | --- |
| TATACGGA | -0.0839 ± 0.0093 |
| CCCTTTAA | -0.125 ± 0.018 |
| AAGTTCTC | 0.05 ± 0.063 |
| AGTAAGCG | 0.0237 ± 0.02 |
| CCACCGTC | -0.101 ± 0.0095 |
| TATGCTAA | -0.00225 ± 0.056 |
| CACGCCTG | 0.318 ± 0.08 |
| AAGTACCG | -0.161 ± 0.055 |
| CTGAACGA | -0.254 ± 0.028 |
| ATGCCGTA | -0.217 ± 0.058 |
| CGCATTGC | -0.115 ± 0.078 |
| ATCGAAGA | -0.0874 ± 0.012 |
| GCCCCCAC | -0.133 ± 0.027 |
| CTCCTCTC | 0.0391 ± 0.091 |
| TACAGCCA | -0.206 ± 0.025 |
| TTCCACAA | 0.125 ± 0.07 |
| CGTAATAA | -0.0707 ± 0.057 |
| ACGAGGAC | -0.105 ± 0.073 |
| CGCACTAA | 0.256 ± 0.011 |
| CGTATCGC | 0.201 ± 0.0051 |
| CCTCAAGG | -0.109 ± 0.027 |
| TGGCGTAA | 0.108 ± 0.019 |
| CAAGGCAG | -0.314 ± 0.044 |
| AGGCGTGA | 0.4754 ± 0.0047 |
| ATGCAGGC | -0.291 ± 0.0043 |

| Sequence | PBM E-score of 8-mer |
| --- | --- |
| CGATCCAC | -0.0407 ± 0.042 |
| AAAGAGGC | -0.175 ± 0.05 |
| AAGGGAAT | -0.106 ± 0.046 |
| ACTGACAC | 0.349 ± 0.011 |
| ATTCCACC | -0.15 ± 0.048 |
| GAGCCGAA | -0.082 ± 0.056 |
| AAAACAAC | 0.0735 ± 0.046 |
| CAGGTTGA | -0.0647 ± 0.018 |
| CCTCCATC | -0.0262 ± 0.042 |
| CACATAGG | 0.157 ± 0.045 |
| AAAATAAG | -0.181 ± 0.0025 |
| ATTGCTTC | -0.114 ± 0.019 |
| CGAACGCA | 0.00974 ± 0.014 |
| GCGCCTCA | 0.326 ± 0.0035 |
| ATCGCGGC | 0.15 ± 0.052 |
| CCATGCAG | -0.0129 ± 0.02 |
| ACATTTCT | 0.101 ± 0.0014 |
| AGGGCAAC | -0.0399 ± 0.1 |
| CACTCAAG | 0.106 ± 0.095 |
| AACCGGCA | 0.0916 ± 0.0064 |
| CCCTTAAA | -0.107 ± 0.11 |
| ATTTCCAG | -0.161 ± 0.0028 |
| CCCATATC | -0.1952 ± 0.0016 |
| GCTTCTAA | -0.0548 ± 0.028 |
| CGCAACAA | -0.00407 ± 0.067 |

| Sequence | PBM E-score of 8-mer |
| --- | --- |
| CAAAGTTA | 0.0751 ± 0.038 |
| CTGGTTAC | 0.0223 ± 0.017 |
| ATCTTAAT | -0.145 ± 0.051 |
| CAAGCGAA | -0.0122 ± 0.031 |
| ATTTGGGG | -0.254 ± 0.0029 |
| TCGGCCCA | -0.248 ± 0.033 |
| GGCTCGGA | -0.274 ± 0.014 |
| GAGGCGAC | 0.252 ± 0.034 |
| AGCAACTA | 0.0974 ± 0.13 |
| CCTTAGTC | -0.187 ± 0.028 |
| TCGTTACA | -0.0221 ± 0.077 |
| GGTAGGGA | -0.191 ± 0.051 |
| AAGGCCGG | -0.217 ± 0.014 |
| GCTTAGAA | -0.156 ± 0.026 |
| AATCCATC | -0.0763 ± 0.017 |
| CTGTAGCA | -0.0347 ± 0.061 |
| AGCGTGCC | 0.0452 ± 0.064 |
| ACTGGCTA | -0.191 ± 0.047 |
| CTCAGTAC | -0.145 ± 0.085 |
| GAGTTCCA | -0.14 ± 0.0034 |
| CGCCCCAA | 0.232 ± 0.051 |
| GCTGTCCC | -0.156 ± 0.045 |
| CGTTTCTC | -0.0629 ± 0.075 |
| AGATAGGA | -0.171 ± 0.05 |
| ACATCGAA | -0.0435 ± 0.033 |

| Sequence | PBM E-score of 8-mer |
| --- | --- |
| AGGAGTAG | -0.144 ± 0.12 |
| CAACAAGA | -0.0316 ± 0.0082 |
| AGGACCAA | -0.111 ± 0.046 |
| AACTCCAA | 0.131 ± 0.0017 |
| CATAAAAG | -0.246 ± 0.021 |
| CCACCTAC | 0.248 ± 0.043 |
| ACTTACAT | 0.0724 ± 0.033 |
| AGAAACAC | 0.157 ± 0.037 |
| CCCGCTAC | -0.0498 ± 0.12 |
| AAAAGGAT | -0.0795 ± 0.11 |
| GACGTCAC | 0.159 ± 0.039 |
| ACCATAAC | 0.0602 ± 0.0074 |
| CCTCTGTC | 0.0257 ± 0.037 |
| CACGTAAA | 0.0349 ± 0.065 |
| ACTACCCT | 0.07 ± 0.017 |
| ACCCTTAA | 0.0101 ± 0.039 |
| AGCTGCAC | 0.0807 ± 0.11 |
| GACTCCAC | -0.159 ± 0.076 |
| CTAAGAAA | -0.136 ± 0.081 |
| CCAACCAC | 0.224 ± 0.018 |
| AACTCACA | 0.2436 ± 0.00066 |
| TCGGGCCA | -0.0898 ± 0.084 |
| ACTCTTTG | 0.221 ± 0.066 |
| AGCGTTTG | -0.0532 ± 0.043 |
| GGGCGGGA | 0.0163 ± 0.094 |

| Sequence | PBM E-score of 8-mer |
| --- | --- |
| CGGAGTGC | 0.00458 ± 0.032 |
| ACAGGGGT | -0.0537 ± 0.021 |
| AGCAGCAA | -0.106 ± 0.074 |
| GCAGGCAC | 0.109 ± 0.017 |
| ACGACCGT | -0.0715 ± 0.028 |
| AGGATCGC | 0.119 ± 0.037 |
| CGAGTACA | -0.0204 ± 0.051 |
| ACCAACAC | 0.273 ± 0.0089 |
| CCGTCCAA | -0.0665 ± 0.012 |
| ATGAACTA | -0.0184 ± 0.014 |
| GATGGTGC | 0.0896 ± 0.077 |
| AGGTGCTA | 0.4822 ± 0.0033 |
| ATACGTGA | 0.172 ± 0.011 |
| CCCAGCCA | -0.0443 ± 0.041 |
| ATGTCTAG | -0.0188 ± 0.02 |
| CCTCGGTA | 0.0026 ± 0.008 |
| ACGTCTTC | -0.0674 ± 0.12 |
| ACCTATGC | 0.0424 ± 0.05 |
| CGCGTTAG | 0.307 ± 0.069 |
| ACCCCAGC | -0.0492 ± 0.03 |
| ATTACGAA | -0.192 ± 0.0061 |
| CCCGACAG | 0.0718 ± 0.038 |
| ACGCAAAC | 0.0596 ± 0.0051 |
| CGGCATAG | -0.0343 ± 0.023 |
| TATTTTAA | -0.0888 ± 0.074 |

| Sequence | PBM E-score of 8-mer |
| --- | --- |
| CCCATCAG | -0.2 ± 0.042 |
| AGGCCGGC | -0.0199 ± 0.03 |
| CCCGTTAG | 0.2017 ± 0.0019 |
| ATATGAAT | -0.00217 ± 0.023 |
| TCTCAAGA | -0.0529 ± 0.036 |
| CGTATGGC | -0.0819 ± 0.014 |
| GTCTTGGA | -0.322 ± 0.015 |
| CCGCGCCC | 0.08 ± 0.071 |
| AAGAGTAC | -0.19 ± 0.041 |
| AATAGAGC | -0.239 ± 0.052 |
| GGCCCGGA | -0.188 ± 0.008 |
| CGAGGTCA | 0.0539 ± 0.041 |
| GCTCCCGA | -0.0584 ± 0.032 |
| CAAAATCA | 0.0393 ± 0.049 |
| CGGTGTAG | 0.17 ± 0.083 |
| ATAGTACA | -0.146 ± 0.035 |
| AGCTGCGC | -0.0139 ± 0.044 |
| AGGGAAGG | -0.238 ± 0.0064 |
| TAAATCTA | -0.00768 ± 0.063 |
| CCATTCTC | 0.0958 ± 0.018 |
| ACTTGCGC | 0.15 ± 0.042 |
| AAGCATCA | 0.0413 ± 0.062 |
| ACCACTTC | 0.119 ± 0.01 |
| AACGCAAT | 0.115 ± 0.0013 |
| TCGCTGCA | -0.057 ± 0.069 |

| Sequence | PBM E-score of 8-mer |
| --- | --- |
| CTGGATTA | -0.116 ± 0.033 |
| TTACACAA | 0.152 ± 0.035 |
| CTGTAGAC | -0.0438 ± 0.026 |
| ATACTCGA | -0.0619 ± 0.038 |
| CGCGCGCG | 0.225 ± 0.067 |
| CACGGAAG | 0.17 ± 0.018 |
| GAGCGCGA | 0.279 ± 0.053 |
| AACGTAGC | -0.0485 ± 0.053 |
| ATGACTTA | 0.0301 ± 0.045 |
| GCTGCTCC | -0.0836 ± 0.039 |
| CGCCGTCA | 0.226 ± 0.022 |
| TCCGCTAA | 0.109 ± 0.018 |
| ACCCTTCT | -0.0049 ± 0.025 |
| CGCTGTAC | -0.164 ± 0.046 |
| ACATGGGC | -0.19 ± 0.036 |
| TAGGCAGA | -0.293 ± 0.046 |
| GCTGGGCA | -0.138 ± 0.015 |
| AGGTCCTC | -0.282 ± 0.026 |
| AGCGTGAA | 0.413 ± 0.018 |
| GAGTGATC | 0.00628 ± 0.033 |
| ATTTACGA | -0.0762 ± 0.0035 |
| ATCTGACC | -0.235 ± 0.0079 |

— the supplement of paper PMC4166925
